Eight compounds from ChEMBL document CHEMBL5331106, “Investigation into the Mechanism of Action of the Tuberculosis Drug Candidate SQ109 and Its Metabolites and Analogues in Mycobacteria” (J Med Chem, 2023) can be followed below.

For this assay, the system named is Mycobacterium tuberculosis. As to the kind of experiment: Rescue fold, ratio of IC50 for antimycobacterial activity against Mycobacterium tuberculosis HN878 in presence of 50 uM undecaprenyl phosphate to IC50 for antimycobacterial activity against Mycobacterium tuberculosis HN878.
With `CC(C)CCCC(C)CCNCCNC1C2CC3CC(C2)CC1C3` (stereo not drawn), the “Ratio IC50” value came to 9.4.

As for `CC(C)=CCC/C(C)=C/CNCCOC1C2CC3CC(C2)CC1C3` (stereo not drawn), the “Ratio IC50” value is on record as 8.2.

On to `CC(C)=CCC/C(C)=C/COCCNC1C2CC3CC(C2)CC1C3` (stereo not drawn), for which the “Ratio IC50” value came out at 2.1.

For the compound `CC(C)=CCC/C(C)=C/CCNCCNC1C2CC3CC(C2)CC1C3` (stereo not drawn), the “Ratio IC50” value was found to be 9.7.

With `CC(C)=CCC/C(C)=C/C(C)(C)NCCNC1C2CC3CC(C2)CC1C3` (stereo not drawn), the “Ratio IC50” value is listed as 14.

For the compound `CC(C)=CCC/C(C)=C/CCNCCNC1C2CC3CC1CC(F)(C3)C2` (stereo not drawn), the “Ratio IC50” value is 5.9.

`CCCCCCCCCCCNCCNC1C2CC3CC(C2)CC1C3` (stereo not drawn): the “Ratio IC50” value worked out at 13.

As for `CC(C)=CCC/C(C)=C/CNCCNC1C2CC3CC(C2)CC1C3` (stereo not drawn) [SQ109], the “Ratio IC50” value came out at 15.
